# Results as given in the supplement of paper PMC3334620.
# Whole data set: some 33,000 sequences, median “E-score (-0.5 to 0.5)” near -0.017, cut for the highest 2% near 0.3. This is one part of the list.
# Biological target: T1, Sut1 (UniProt P53032)
# T1 sequence: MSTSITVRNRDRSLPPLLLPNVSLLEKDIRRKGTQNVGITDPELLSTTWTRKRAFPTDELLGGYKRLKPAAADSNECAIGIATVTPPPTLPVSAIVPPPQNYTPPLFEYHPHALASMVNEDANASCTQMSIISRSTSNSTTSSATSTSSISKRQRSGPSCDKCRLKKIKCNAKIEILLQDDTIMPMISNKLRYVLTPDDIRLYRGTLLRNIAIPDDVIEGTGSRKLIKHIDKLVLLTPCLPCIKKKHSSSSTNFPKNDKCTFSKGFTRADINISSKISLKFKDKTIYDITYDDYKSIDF
# Experiment: PBM E-score (8-mer binding enrichment) (E-score (-0.5 to 0.5)); higher = stronger / more preferred TF binding; most listed sequences are background and not binding sites
# Conditions: protein concentration: 200 nM; construct: GST-full length
# In short: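 Each ungapped eight-base word and its reverse complement, pooled, received an E-score from the Universal PBM Analysis Suite. Underlying scans, normalised with masliner, recorded fluorescent anti-GST bound to GST-tagged yeast transcription factors. These were applied at about 100-200 nM to universal all-10-mer Agilent arrays double-stranded by primer extension.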
row,Sequence,PBM E-score
1,GGGCATCA,-0.237
2,AACGGCGA,0.0997
3,GACTGATA,0.0856
4,CGGTACAC,-0.215
5,ACTAACGC,-0.085
6,AACAAGAC,0.0516
7,AGCTCCGC,0.331
8,AGGGGGGA,-0.302
9,AATGGTGC,0.0132
10,ATTCTTCA,0.195
11,AATATCTG,0.00496
12,TAGTTCCA,0.143
13,CACTGGGA,-0.173
14,CCAATGCC,-0.15
15,ACGTATCT,-0.0263
16,GCACTACA,-0.216
17,ATCGATTA,0.0962
18,AAGGGCCT,-0.122
19,ATTTAACG,0.298
20,AATGTTGG,0.0168
21,GAAACCGC,0.0576
22,CGTAGCCC,-0.274
23,AATGGACG,0.196
24,GAGCGTCC,-0.165
25,AGAGTCGC,-0.0597

row,Sequence,PBM E-score
1,ATGACACC,-0.0718
2,ACTCCTAG,-0.0737
3,GGGGCTGA,-0.293
4,TCGGAACA,0.303
5,AGCATTCG,0.0505
6,GGATCTTA,-0.00032
7,ATCATAAC,0.204
8,CCAGTAGA,-0.112
9,CTAGAAGC,-0.0707
10,AGGATGCC,-0.205
11,ACAGATTA,-0.0563
12,AGTAGAAC,-0.0507
13,ACCTTAGA,-0.0705
14,AGAAGCTG,-0.155
15,CAGGGCCG,-0.169
16,AGTATAAC,0.185
17,CGGAGTCA,0.474
18,CCCGGCTA,-0.124
19,GGTTAACA,0.0261
20,CAACCCTC,-0.257
21,ATTGCTGC,-0.022
22,AATTAGTG,0.18
23,CCTGGCAC,-0.256
24,CTATTAAA,0.0826
25,TCGTTCAA,-0.0686

row,Sequence,PBM E-score
1,GAATCCCA,0.0678
2,CAGGTCTC,-0.172
3,TATCCCGA,-0.00656
4,ATCTTAAC,0.108
5,CGCGCGGC,0.0401
6,CAAAAAGC,0.259
7,AGGTTTAG,0.0298
8,AACAATTC,0.213
9,ATTGTCCA,-0.0211
10,ACAGGGTC,-0.117
11,AGGGTACA,-0.0378
12,ATCTTGAA,0.102
13,GTTTATGA,0.136
14,CGTCTTAA,0.0646
15,CTTTTACC,0.149
16,CTCTGGCA,-0.229
17,CTGTTGTC,0.0813
18,TAAGATAA,0.0591
19,TTCTTCAA,0.205
20,AATCAGCC,-0.0607
21,CAGTGAGA,0.077
22,AACGTTGT,0.0376
23,CGAAGACG,-0.112
24,CGCTTTTC,0.0913
25,GACAAGAC,-0.201

row,Sequence,PBM E-score
1,TCCAAACA,0.0698
2,CGATGTGA,-0.082
3,ATACCTGG,-0.266
4,AGCTTCTC,-0.219
5,CGGACAAA,0.286
6,GTCACGAA,0.05
7,GAACTTAC,0.00823
8,GGTGGCGA,-0.266
9,CACATACC,0.0756
10,AGTCGGTC,-0.0477
11,CGGTCTTA,0.071
12,AATGTTAC,0.113
13,CGGAACAA,0.285
14,AAAACGGC,0.0207
15,CTGGACGA,-0.369
16,AGCAAAAT,0.121
17,CGTGGGCC,-0.0428
18,CATGAATG,0.118
19,ATTATTAC,0.278
20,CCTAGGGC,-0.248
21,ATGTGCAG,-0.142
22,CCTTCTAA,0.034
23,ATATCATG,0.0236
24,CGAATACA,0.188
25,ATGCAGAA,0.077

row,Sequence,PBM E-score
1,GCAGTAAA,0.0571
2,AGTTTTCC,0.226
3,AGCTTAAC,0.0213
4,GCTGGCTA,-0.217
5,AAAACACG,0.149
6,ATATGTAG,0.104
7,CCAGCGGG,-0.13
8,GTAACCAC,-0.147
9,TGCGGCAA,-0.182
10,CTTCCTTC,-0.07
11,CATACTTC,-0.00145
12,AGAAAGAT,0.0929
13,AAACGCTG,-0.0876
14,ATTAGGGA,-0.0353
15,CTATGCTC,-0.249
16,ACGGTAGT,0.00498
17,AAGGTGTC,-0.141
18,GCCCACAC,-0.136
19,CGCAGGAG,-0.264
20,AATAGGGG,-0.00225
21,ATGACATG,-0.0203
22,CAGAGTAG,-0.18
23,ACAGGCGG,-0.216
24,AGGTACGG,-0.0665
25,CGCTGATA,0.00385

row,Sequence,PBM E-score
1,ACGGCTGG,-0.216
2,GCTTGGCA,-0.178
3,ACTGGCCT,-0.0518
4,TAAATATA,0.289
5,GACAGTCC,0.0519
6,ACGACAAG,-0.167
7,CCTAGTCA,-0.21
8,AAAGTGAC,0.111
9,GTCAAAAA,0.24
10,CTTCGAGA,-0.141
11,GTATGGCA,-0.116
12,GTCAGCTA,-0.149
13,CAGTATCA,-0.0758
14,ATGCCACG,-0.0512
15,GTGCGCGA,-0.195
16,CACACAAA,0.0659
17,AGAGGCAC,-0.167
18,CAGTTCAC,-0.065
19,ATATTGTG,-0.0184
20,ATTAACAG,0.0761
21,CTGAGCTA,-0.188
22,ACTTTTCG,0.243
23,TTAGAAAA,0.238
24,TAACTGAA,-0.0031
25,ACCACGGA,0.177

row,Sequence,PBM E-score
1,GCAGTGCA,-0.158
2,CACTTGTA,-0.0118
3,CCTGGCAG,-0.231
4,CCGTGGAA,0.00758
5,ACTGCAAA,0.0272
6,TATGCTGA,0.175
7,CCCTAACC,-0.148
8,CCTACTAA,-0.106
9,TGCGAGAA,-0.0708
10,CGAGCCCG,-0.187
11,CCGGTTCC,-0.0625
12,ACTTATCG,0.0437
13,ACCACTCT,-0.157
14,ACGTCGAC,0.0491
15,ATACCAAG,0.0542
16,CAACATTA,0.123
17,AGACTCGG,-0.0487
18,ACTCCTAC,0.0612
19,GCATAAGC,-0.116
20,CTGCCCAC,-0.291
21,CCCAGAGA,-0.247
22,ACCATACC,-0.219
